Experimental data taken from a collection of fitness landscapes (doi:10.1126/science.1257360).
This is one part of the list.

B1: PhoQ; a variant is named by its letters at X, in order, P23837 (parent)
chain: MKKLLRLFFPLSLRVRFLLATAAVVLVLSLAYGMVALIGYSVSFDKTTFRLLRGESNLFYTLAKWENNKLHVELPENIDKQSPTMTLIYDENGQLLWAQRDVPWLMKMIQPDWLKSNGFHEIEADVNDTSLLLSGDHSIQQQLQEVREDDDDAEMTHSVAVNVYPATSRMPKLTIVVVDTIPVELKSSYMVWSWFIYVLSANLLLVIPLLWVAAWWSLRPIEALAKEVRELEEHNRELLNPATTRELTSLVRNLNRLLKSERERYDKYRTTLTDLTHSLKTPLXXLQXXLRSLRSEKMSVSDAEPVMLEQISRISQQIGYYLHRASMRGGTLLSRELHPVAPLLDNLTSALNKVYQRKGVNISLDISPEISFVGEQNDFVEVMGNVLDNACKYCLEFVEISARQTDEHLYIVVEDDGPGIPLSKREVIFDRGQRVDTLRPGQGVGLAVAREITEQYEGKIVAGESMLGGARMEVIFGRQHSAPKDE

Variants of: B1
Assay: enrichment ratio after two sorts for PhoP signalling (ratio (wild type AVST 3.29)); higher = more functional
Conditions: with PhoP (E. coli)

Row | Variant | enrichment ratio
1 | VQWD | ≤ 0.25
2 | LECV | 5.3
3 | YHNT | ≤ 0.25
4 | RQWV | ≤ 0.25
5 | LWFR | ≤ 0.25
6 | PHWR | ≤ 0.25
7 | KEHG | ≤ 0.25
8 | LPNH | ≤ 0.25
9 | KHAV | ≤ 0.25
10 | QQYL | ≤ 0.25
11 | KTFK | ≤ 0.25
12 | GDTL | ≤ 0.25
13 | LTYT | ≤ 0.25
14 | DMGC | ≤ 0.25
15 | YANS | ≤ 0.25
16 | THFT | 0.545
17 | FASC | ≤ 0.25
18 | KIMK | ≤ 0.25
19 | VMNE | ≤ 0.25
20 | TIVD | ≤ 0.25
21 | NGSK | ≤ 0.25
22 | HFAP | ≤ 0.25
23 | GGHL | ≤ 0.25
24 | RFAA | ≤ 0.25
25 | NMRQ | ≤ 0.25
26 | YNSE | ≤ 0.25

Row | Variant | enrichment ratio
27 | VKHC | ≤ 0.25
28 | HKRT | ≤ 0.25
29 | YYGN | ≤ 0.25
30 | AVRG | ≤ 0.25
31 | HDFN | ≤ 0.25
32 | KVFQ | ≤ 0.25
33 | NGKW | ≤ 0.25
34 | NQDV | ≤ 0.25
35 | EYQF | ≤ 0.25
36 | AMPK | ≤ 0.25
37 | RKIR | ≤ 0.25
38 | FAHW | ≤ 0.25
39 | EVDF | ≤ 0.25
40 | SHLG | 10.8
41 | MNMH | ≤ 0.25
42 | VMRA | ≤ 0.25
43 | KMMP | ≤ 0.25
44 | GFHK | ≤ 0.25
45 | YRIP | ≤ 0.25
46 | TSCA | 15.2
47 | FQSG | ≤ 0.25
48 | ITDV | ≤ 0.25
49 | MAVK | ≤ 0.25
50 | TTVP | ≤ 0.25
51 | VCGE | ≤ 0.25
52 | MTNC | ≤ 0.25

Row | Variant | enrichment ratio
53 | PDYM | ≤ 0.25
54 | FTAW | ≤ 0.25
55 | GPPK | ≤ 0.25
56 | SAYT | ≤ 0.25
57 | AHHI | ≤ 0.25
58 | EGPF | ≤ 0.25
59 | ANYR | ≤ 0.25
60 | TCYQ | 3.33
61 | RPVN | ≤ 0.25
62 | DCLK | ≤ 0.25
63 | NICM | ≤ 0.25
64 | YIGS | ≤ 0.25
65 | DMHH | ≤ 0.25
66 | QARM | ≤ 0.25
67 | WKSE | ≤ 0.25
68 | QCMP | ≤ 0.25
69 | FKPN | ≤ 0.25
70 | TLGF | 12.8
71 | SENC | 10.6
72 | KDEC | ≤ 0.25
73 | YHFL | ≤ 0.25
74 | KCHW | ≤ 0.25
75 | VNMS | 2.24
76 | VPYQ | ≤ 0.25
77 | APTM | ≤ 0.25
78 | WYFD | 6.78

Row | Variant | enrichment ratio
79 | RDCG | ≤ 0.25
80 | QYYT | ≤ 0.25
81 | TRSM | 5.52
82 | KIPN | ≤ 0.25
83 | EEDF | ≤ 0.25
84 | PAHC | ≤ 0.25
85 | FMNM | ≤ 0.25
86 | APLY | ≤ 0.25
87 | MCIR | ≤ 0.25
88 | PCTP | ≤ 0.25
89 | QYVP | ≤ 0.25
90 | PTMT | ≤ 0.25
91 | FVYM | ≤ 0.25
92 | NKLN | ≤ 0.25
93 | NRWG | ≤ 0.25
94 | QISK | ≤ 0.25
95 | MCIE | ≤ 0.25
96 | KHFE | ≤ 0.25
97 | RPIH | ≤ 0.25
98 | AMCP | ≤ 0.25
99 | MPWC | ≤ 0.25
100 | TQWT | 0.56
101 | LMNP | ≤ 0.25
102 | EDLY | ≤ 0.25
103 | YPSH | ≤ 0.25
104 | NRLY | ≤ 0.25

Row | Variant | enrichment ratio
105 | DCSE | ≤ 0.25
106 | VMQR | ≤ 0.25
107 | DCLG | ≤ 0.25
108 | TDHH | ≤ 0.25
109 | TPKF | ≤ 0.25
110 | RYVT | ≤ 0.25
111 | QKQL | ≤ 0.25
112 | MGNH | ≤ 0.25
113 | QKGA | ≤ 0.25
114 | VAAC | ≤ 0.25
115 | IKWC | ≤ 0.25
116 | SYID | ≤ 0.25
117 | VSGS | ≤ 0.25
118 | DHTQ | ≤ 0.25
119 | KHVA | ≤ 0.25
120 | FQLK | ≤ 0.25
121 | ETFP | ≤ 0.25
122 | TTGA | 12.6
123 | RFCK | ≤ 0.25
124 | FGAI | 1.34
125 | DYPF | ≤ 0.25
126 | MPEV | ≤ 0.25
127 | FVCR | ≤ 0.25
128 | QVHV | ≤ 0.25
129 | DLPI | ≤ 0.25
130 | GYAK | ≤ 0.25

Row | Variant | enrichment ratio
131 | VQNH | ≤ 0.25
132 | QAHA | ≤ 0.25
133 | VRTL | ≤ 0.25
134 | TPWH | ≤ 0.25
135 | SSCQ | 13.4
136 | AEIF | 18.6
137 | GQTM | ≤ 0.25
138 | HHCL | ≤ 0.25
139 | LVKY | ≤ 0.25
140 | EDVQ | ≤ 0.25
141 | QPIA | ≤ 0.25
142 | PVIQ | ≤ 0.25
143 | QNLG | ≤ 0.25
144 | LPKG | ≤ 0.25
145 | NYTL | ≤ 0.25
146 | EWAS | ≤ 0.25
147 | PDFV | ≤ 0.25
148 | RVQQ | ≤ 0.25
149 | SDPN | ≤ 0.25
150 | RACF | ≤ 0.25
151 | PDPQ | ≤ 0.25
152 | GDPY | ≤ 0.25
153 | ENCW | ≤ 0.25
